± gives the standard deviation of the averaged measurements. Laboratory Escherichia coli strains with one amino-acid change in an essential protein, pooled on minimal glucose agar with carbenicillin or gentamicin at twice the control MIC (plus kanamycin and chloramphenicol for the plasmids), 48 h. Fold change of barcode share against drug-free plates; higher = less susceptible. Active = above 20 in both replicates (the paper's putatively resistant). '<' = one read or none on drug, '>' = one read or none on a drug-free plate. Shares are relative, so most strains fall below 1 when a few take over. Listed are strains with at least 15 reads on both drug-free plates, and hits; most hits rest on fewer reference reads. Replicate rank correlation about 0.5. Edits are read from barcodes.
B1: tilS L28A (protein)
chain: MTLTLNRQLLTSRQILVAFSGGLDSTVALHQLVQWRTENPGVALRAIHVHHGLSANADAWVTHCENVCQQWQVPLVVERVQLAQEGLGIEAQARQARYQAFARTLLPGEVLVTAQHLDDQCETFLLALKRGSGPAGLSAMAEVSEFAGTRLIRPLLARTRGELVQWARQYDLRWIEDESNQDDSYDRNFLRLRVVPLLQQRWPHFAEATARSAALCAEQESLLDELLADDLAHCQSPQGTLQIVPMLAMSDARRAAIIRRWLAGQNAPMPSRDALVRIWQEVALAREDASPCLRLGAFEIRRYQSQLWWIKSVTGQSENIVPWQTWLQPLELPAGLGSVQLNAGGDIRPPRADEAVSVRFKAPGLLHIVGRNGGRKLKKIWQELGVPPWLRDTTPLLFYGETLIAAAGVFVTQEGVAEGENGVSFVWQKTLS
B2: tilS L28Q (protein)
chain: MTLTLNRQLLTSRQILVAFSGGLDSTVQLHQLVQWRTENPGVALRAIHVHHGLSANADAWVTHCENVCQQWQVPLVVERVQLAQEGLGIEAQARQARYQAFARTLLPGEVLVTAQHLDDQCETFLLALKRGSGPAGLSAMAEVSEFAGTRLIRPLLARTRGELVQWARQYDLRWIEDESNQDDSYDRNFLRLRVVPLLQQRWPHFAEATARSAALCAEQESLLDELLADDLAHCQSPQGTLQIVPMLAMSDARRAAIIRRWLAGQNAPMPSRDALVRIWQEVALAREDASPCLRLGAFEIRRYQSQLWWIKSVTGQSENIVPWQTWLQPLELPAGLGSVQLNAGGDIRPPRADEAVSVRFKAPGLLHIVGRNGGRKLKKIWQELGVPPWLRDTTPLLFYGETLIAAAGVFVTQEGVAEGENGVSFVWQKTLS
B3: tilS L28W (protein)
chain: MTLTLNRQLLTSRQILVAFSGGLDSTVWLHQLVQWRTENPGVALRAIHVHHGLSANADAWVTHCENVCQQWQVPLVVERVQLAQEGLGIEAQARQARYQAFARTLLPGEVLVTAQHLDDQCETFLLALKRGSGPAGLSAMAEVSEFAGTRLIRPLLARTRGELVQWARQYDLRWIEDESNQDDSYDRNFLRLRVVPLLQQRWPHFAEATARSAALCAEQESLLDELLADDLAHCQSPQGTLQIVPMLAMSDARRAAIIRRWLAGQNAPMPSRDALVRIWQEVALAREDASPCLRLGAFEIRRYQSQLWWIKSVTGQSENIVPWQTWLQPLELPAGLGSVQLNAGGDIRPPRADEAVSVRFKAPGLLHIVGRNGGRKLKKIWQELGVPPWLRDTTPLLFYGETLIAAAGVFVTQEGVAEGENGVSFVWQKTLS
B4: thrS L79W (protein)
chain: MPVITLPDGSQRHYDHAVSPMDVALDIGPGLAKACIAGRVNGELVDACDLIENDAQLSIITAKDEEGLEIIRHSCAHLWGHAIKQLWPHTKMAIGPVIDNGFYYDVDLDRTLTQEDVEALEKRMHELAEKNYDVIKKKVSWHEARETFANRGESYKVSILDENIAHDDKPGLYFHEEYVDMCRGPHVPNMRFCHHFKLMKTAGAYWRGDSNNKMLQRIYGTAWADKKALNAYLQRLEEAAKRDHRKIGKQLDLYHMQEEAPGMVFWHNDGWTIFRELEVFVRSKLKEYQYQEVKGPFMMDRVLWEKTGHWDNYKDAMFTTSSENREYCIKPMNCPGHVQIFNQGLKSYRDLPLRMAEFGSCHRNEPSGSLHGLMRVRGFTQDDAHIFCTEEQIRDEVNGCIRLVYDMYSTFGFEKIVVKLSTRPEKRIGSDEMWDRAEADLAVALEENNIPFEYQLGEGAFYGPKIEFTLYDCLDRAWQCGTVQLDFSLPSRLSASYVGEDNERKVPVMIHRAILGSMERFIGILTEEFAGFFPTWLAPVQVVIMNITDSQSEYVNELTQKLSNAGIRVKADLRNEKIGFKIREHTLRRVPYMLVCGDKEVESGKVAVRTRRGKDLGSMDVNEVIEKLQQEIRSRSLKQLEE
B5: thrS L79D (protein)
chain: MPVITLPDGSQRHYDHAVSPMDVALDIGPGLAKACIAGRVNGELVDACDLIENDAQLSIITAKDEEGLEIIRHSCAHLDGHAIKQLWPHTKMAIGPVIDNGFYYDVDLDRTLTQEDVEALEKRMHELAEKNYDVIKKKVSWHEARETFANRGESYKVSILDENIAHDDKPGLYFHEEYVDMCRGPHVPNMRFCHHFKLMKTAGAYWRGDSNNKMLQRIYGTAWADKKALNAYLQRLEEAAKRDHRKIGKQLDLYHMQEEAPGMVFWHNDGWTIFRELEVFVRSKLKEYQYQEVKGPFMMDRVLWEKTGHWDNYKDAMFTTSSENREYCIKPMNCPGHVQIFNQGLKSYRDLPLRMAEFGSCHRNEPSGSLHGLMRVRGFTQDDAHIFCTEEQIRDEVNGCIRLVYDMYSTFGFEKIVVKLSTRPEKRIGSDEMWDRAEADLAVALEENNIPFEYQLGEGAFYGPKIEFTLYDCLDRAWQCGTVQLDFSLPSRLSASYVGEDNERKVPVMIHRAILGSMERFIGILTEEFAGFFPTWLAPVQVVIMNITDSQSEYVNELTQKLSNAGIRVKADLRNEKIGFKIREHTLRRVPYMLVCGDKEVESGKVAVRTRRGKDLGSMDVNEVIEKLQQEIRSRSLKQLEE
B6: thrS I218A (protein)
chain: MPVITLPDGSQRHYDHAVSPMDVALDIGPGLAKACIAGRVNGELVDACDLIENDAQLSIITAKDEEGLEIIRHSCAHLLGHAIKQLWPHTKMAIGPVIDNGFYYDVDLDRTLTQEDVEALEKRMHELAEKNYDVIKKKVSWHEARETFANRGESYKVSILDENIAHDDKPGLYFHEEYVDMCRGPHVPNMRFCHHFKLMKTAGAYWRGDSNNKMLQRAYGTAWADKKALNAYLQRLEEAAKRDHRKIGKQLDLYHMQEEAPGMVFWHNDGWTIFRELEVFVRSKLKEYQYQEVKGPFMMDRVLWEKTGHWDNYKDAMFTTSSENREYCIKPMNCPGHVQIFNQGLKSYRDLPLRMAEFGSCHRNEPSGSLHGLMRVRGFTQDDAHIFCTEEQIRDEVNGCIRLVYDMYSTFGFEKIVVKLSTRPEKRIGSDEMWDRAEADLAVALEENNIPFEYQLGEGAFYGPKIEFTLYDCLDRAWQCGTVQLDFSLPSRLSASYVGEDNERKVPVMIHRAILGSMERFIGILTEEFAGFFPTWLAPVQVVIMNITDSQSEYVNELTQKLSNAGIRVKADLRNEKIGFKIREHTLRRVPYMLVCGDKEVESGKVAVRTRRGKDLGSMDVNEVIEKLQQEIRSRSLKQLEE
B7: thrS L79Q (protein)
chain: MPVITLPDGSQRHYDHAVSPMDVALDIGPGLAKACIAGRVNGELVDACDLIENDAQLSIITAKDEEGLEIIRHSCAHLQGHAIKQLWPHTKMAIGPVIDNGFYYDVDLDRTLTQEDVEALEKRMHELAEKNYDVIKKKVSWHEARETFANRGESYKVSILDENIAHDDKPGLYFHEEYVDMCRGPHVPNMRFCHHFKLMKTAGAYWRGDSNNKMLQRIYGTAWADKKALNAYLQRLEEAAKRDHRKIGKQLDLYHMQEEAPGMVFWHNDGWTIFRELEVFVRSKLKEYQYQEVKGPFMMDRVLWEKTGHWDNYKDAMFTTSSENREYCIKPMNCPGHVQIFNQGLKSYRDLPLRMAEFGSCHRNEPSGSLHGLMRVRGFTQDDAHIFCTEEQIRDEVNGCIRLVYDMYSTFGFEKIVVKLSTRPEKRIGSDEMWDRAEADLAVALEENNIPFEYQLGEGAFYGPKIEFTLYDCLDRAWQCGTVQLDFSLPSRLSASYVGEDNERKVPVMIHRAILGSMERFIGILTEEFAGFFPTWLAPVQVVIMNITDSQSEYVNELTQKLSNAGIRVKADLRNEKIGFKIREHTLRRVPYMLVCGDKEVESGKVAVRTRRGKDLGSMDVNEVIEKLQQEIRSRSLKQLEE
B8: thrS I218W (protein)
chain: MPVITLPDGSQRHYDHAVSPMDVALDIGPGLAKACIAGRVNGELVDACDLIENDAQLSIITAKDEEGLEIIRHSCAHLLGHAIKQLWPHTKMAIGPVIDNGFYYDVDLDRTLTQEDVEALEKRMHELAEKNYDVIKKKVSWHEARETFANRGESYKVSILDENIAHDDKPGLYFHEEYVDMCRGPHVPNMRFCHHFKLMKTAGAYWRGDSNNKMLQRWYGTAWADKKALNAYLQRLEEAAKRDHRKIGKQLDLYHMQEEAPGMVFWHNDGWTIFRELEVFVRSKLKEYQYQEVKGPFMMDRVLWEKTGHWDNYKDAMFTTSSENREYCIKPMNCPGHVQIFNQGLKSYRDLPLRMAEFGSCHRNEPSGSLHGLMRVRGFTQDDAHIFCTEEQIRDEVNGCIRLVYDMYSTFGFEKIVVKLSTRPEKRIGSDEMWDRAEADLAVALEENNIPFEYQLGEGAFYGPKIEFTLYDCLDRAWQCGTVQLDFSLPSRLSASYVGEDNERKVPVMIHRAILGSMERFIGILTEEFAGFFPTWLAPVQVVIMNITDSQSEYVNELTQKLSNAGIRVKADLRNEKIGFKIREHTLRRVPYMLVCGDKEVESGKVAVRTRRGKDLGSMDVNEVIEKLQQEIRSRSLKQLEE
B9: thrS I218Q (protein)
chain: MPVITLPDGSQRHYDHAVSPMDVALDIGPGLAKACIAGRVNGELVDACDLIENDAQLSIITAKDEEGLEIIRHSCAHLLGHAIKQLWPHTKMAIGPVIDNGFYYDVDLDRTLTQEDVEALEKRMHELAEKNYDVIKKKVSWHEARETFANRGESYKVSILDENIAHDDKPGLYFHEEYVDMCRGPHVPNMRFCHHFKLMKTAGAYWRGDSNNKMLQRQYGTAWADKKALNAYLQRLEEAAKRDHRKIGKQLDLYHMQEEAPGMVFWHNDGWTIFRELEVFVRSKLKEYQYQEVKGPFMMDRVLWEKTGHWDNYKDAMFTTSSENREYCIKPMNCPGHVQIFNQGLKSYRDLPLRMAEFGSCHRNEPSGSLHGLMRVRGFTQDDAHIFCTEEQIRDEVNGCIRLVYDMYSTFGFEKIVVKLSTRPEKRIGSDEMWDRAEADLAVALEENNIPFEYQLGEGAFYGPKIEFTLYDCLDRAWQCGTVQLDFSLPSRLSASYVGEDNERKVPVMIHRAILGSMERFIGILTEEFAGFFPTWLAPVQVVIMNITDSQSEYVNELTQKLSNAGIRVKADLRNEKIGFKIREHTLRRVPYMLVCGDKEVESGKVAVRTRRGKDLGSMDVNEVIEKLQQEIRSRSLKQLEE

Each protein was assayed against Escherichia coli (laboratory strain) (assay: barcode share on antibiotic plates over drug-free plates; higher = less susceptible). Conditions: antibiotic: carbenicillin; 2× MIC (3.1 µg/mL).
Method: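 A pool of E. coli strains, each edited to carry one amino-acid change in an essential protein, was grown for 48 h on minimal glucose agar with or without antibiotic; strain barcodes were sequenced; mean of two replicates.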
In the case of B1, the “fold change of barcode share” value is reported as 0.31 ± 0.066.
With B2 the “fold change of barcode share” value was 0.3 ± 0.039.
For B3, the “fold change of barcode share” value was 0.37 ± 0.11.
With B4 the “fold change of barcode share” value was 0.429 ± 0.087.
For B5, the “fold change of barcode share” value was 0.259 ± 0.034.
With B6 the “fold change of barcode share” value was 0.413 ± 0.23.
In the case of B7, the “fold change of barcode share” value is reported as 0.2759 ± 0.0023.
For B8, the “fold change of barcode share” value was 0.476 ± 0.18.
For B9, the “fold change of barcode share” value was 0.917 ± 0.51.

Same assay, conditions: antibiotic: gentamicin; 2× MIC (MIC 0.45 µg/mL)
For B1, the “fold change of barcode share” value was under 0.00694.
In the case of B2, the “fold change of barcode share” value is reported as under 0.0096.
In the case of B4, the “fold change of barcode share” value is reported as under 0.0116.
With B5 the “fold change of barcode share” value was under 0.00682.
For B6, the “fold change of barcode share” value was 0.0117 ± 0.0088.
In the case of B7, the “fold change of barcode share” value is reported as 0.00454 ± 0.0021.
B8 was tested, and the “fold change of barcode share” value was under 0.00214.
With B9 the “fold change of barcode share” value was under 0.0106.
